According to patent US20120005782A1 (University of California, published 2012):

Molecular target: T1, human α1-antitrypsin (authentic human AAT standard, Calbiochem) (human, UniProt P01009)
T1 construct: Commercial human AAT used as the standard in all assays; also called hAAT; human AAT control
Experiment: band shift assay: human AAT standard incubated with PPE, SDS-PAGE, anti-AAT immunoblot (FIG. 4B)
Procedure: Proteins were denatured by boiling 40 μl supernatant samples for five minutes in 10 μl sodium dodecyl sulfate (SDS) sample buffer resulting in a final buffer concentration of 0.4% (vol/vol) SDS, 62.5 mM Tris-HCl (pH 8.2), 10% glycerol, 5 mM EDTA and 0.01% (wt/vol) bromophenol blue. A 15 μl aliquot of each denatured sample was fractionated by sodium dodecyl sulfate-polyacrylamide gel electrophoresis (SDS-PAGE) on 12% Tris-HCl precast gels (BioRad) carried out in a Mini-PROTEAN 3 electrophoresis cell (BioRad) for 35 min at 200 V. Proteins were then blotted onto 0.45 μm nitrocellulose membranes (GE Osmonics, Minnetonka, Minn.) for 85 min at 120 V using an electroblot Mini Trans-Blot transfer cell (BioRad). Immunoblot analysis was then performed according to the procedure described elsewhere (Huang et al., 2001) with the only alteration being the vendor of the secondary antibody used in this study (Southern Biotechnology, Birmingham, Ala.). Chemiluminescence detection was used for the CMV CP immunoblot. Human AAT (Calbiochem, La Jolla, Calif.) was used as the standard for all assays performed.
Formation of a covalent complex between AAT and porcine pancreatic elastase (PPE) (Wilczynska et al., 1997) was examined by visual inspection of functional AAT by immunoblot analysis. […] The complex was then analyzed using the same immunoblot analysis previously described.

binding result: binds
B1: porcine pancreatic elastase (PPE) (enzyme, UniProt P00772 27-266, looked up)
chain: VVGGTEAQRNSWPSQISLQYRSGSSWAHTCGGTLIRQNWVMTAAHCVDRELTFRVVVGEHNLNQNDGTEQYVGVQKIVVHPYWNTDDVAAGYDIALLRLAQSVTLNSYVQLGVLPRAGTILANNSPCYITGWGLTRTNGQLAQTLQQAYLPTVDYAICSSSSYWGSTVKNSMVCAGGDGVRSGCQGDSGGPLHCLVNGQYAVHGVTSFVSRLGCNVTRKPTVFTRVSAYISWINNVIASN
notes: Commercial enzyme; forms a covalent complex with functional AAT in the band shift assay
